In the supplement of paper PMC11417369:
This is one part of the list.

What follows are sequences tested on PfSIP2 AP2 domain 1 (GST-tagged) (assay: gcPBM binding intensity (ln(normalized median fluorescence intensity)); higher = stronger DNA binding).
Procedure, shortened: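 Binding intensity is defined as the maximum Masliner-normalised natural-log median intensity across replicate spots for either probe orientation. It was measured on an Agilent 4 × 180k array of primer-extended double-stranded 36-bp intergenic genomic probes and negative controls, to which GST-tagged P. falciparum DNA-binding domains made in E. coli were applied for 1 h in 1× PBS with 1% milk, 0.2 mg/ml BSA, 0.5% salmon testes DNA and 0.03% Triton X-100. Detection was by Alexa488 anti-GST antibody and scanning at 488 nm.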

Sequence	gcPBM binding intensity (ln)
ATGAAAAAAAGACATGCATGTAAATATAAATTGCTT [TGCATGCA_site504]	6.88
CATTATAAGAGACACACACACATATATAAATATGTA [CACACA_site6621]	7.06
AGTAAGAGGCATTAAGCATGCATATTATTATAAGCA [TGCATGCA_site237]	6.77
TATTTAAAACTATACACATGCATTATATAAAGATAT [TGCATGCA_site702]	7.16
TTATAAAATATATATACATGCACAAAATTATAAGTA [TGCATGCA_site294]	7.62
AATCAACATTTTTTTTGCTATTTTTTTTTTTAATTA [CACACA_negctrl_site891]	6.71
AAAAAAACATAAAATACACACAACCTTAAGAATGTA [CACACA_site3293]	6.77
TACTTATGTGCATACCTACACACTTACATATATATA [CACACA_site2975]	7.75
GATGATGTTTATTTGTGTACATATTAATACTTAATA [XGTACX_site1902]	7.61
AAGAACAGAACGTACACACACATATATATATATATA [CACACA_site3457]	9.32
AAAAAAAGAATGTGAACACACACATTGAATATAATT [CACACA_site8341]	6.79
AATTATTTACCCTATACACACAAAACCCACTAAAAA [CACACA_site4801]	7.54
TATAAATAAATACATACACACACATACATATATATA [CACACA_site9024]	7.42
AATCATATGAAAAATACATGCGCATGGATACCTTTA [TGCATGCA_site224]	6.7
ATAGGACATGTATCCAGTACATATTTAAAAAAAATA [XGTACX_site88]	6.84
GCATATATCAAATATCGTACATTTTTTAAATTAAAA [XGTACX_site3994]	7.04
ATAAAATCAAAATATACACACAAGGGGGAAAATCAA [CACACA_site2809]	7.32
TTTGTAAGTCTTTGTTGTACTCAATAGAATGAAGAA [XGTACX_site8930]	7.68
TTTTCTTTTTTTTATTGTACTTATAAAAATAAATAA [XGTACX_site3498]	7.03
TGATAACCTAATAATACACACACATGAATATATATA [CACACA_site8226]	7.09
GTCGCCAAAAGGTGTACACATAATGCATTATCATAA [CACACA_site6112]	7.58
TAAAAAAAATAGCATACACACATATATACATATATA [CACACA_site658]	6.78

Sequence	gcPBM binding intensity (ln)
ATTAAAAAATTATTCACACAAAATAAAAAAATGAAA [CACACA_site4918]	6.93
TACACATAATATAATGCATGTGTGATGTATGTTTAA [TGCATGCA_site697]	6.87
ATATTTAGGATTATCTGTACATAATATGTTTAATTA [XGTACX_site3426]	7.14
AAAATTATTTTTATGTGTACTTATTTATTATTTATA [XGTACX_site6665]	7.07
TTGTATTCCTTTTACAACTACCATGAAGAGAATTTT [CACACA_negctrl_site1286]	6.94
AAAAAAAACGCACATACACACACACCCATATATATA [CACACA_site9118]	7.41
TTTTATTTTTTCCGACGTACATCCATTATATATAAT [XGTACX_site4469]	7.22
AAATGTTAAAATGACAGTACATATATAAAAAAAAAA [XGTACX_site3936]	6.89
AAATATTTGGAGAAATGTACATATTATAAATATATT [XGTACX_site6885]	6.98
CTAGGAAATTATATGGGTACTCATATTCATAAAAAA [XGTACX_site1846]	6.93
TGCATGCATTATCATAGTACATATAATGTTGTATAA [XGTACX_site2775]	6.97
TAATCTTTCGTACATGTACACACAGAAAAAAAAAAA [CACACA_site8798]	7.17
ATTATTAAGTTTCACAAGAACATTGTTAACAATTTT [CACACA_negctrl_site1128]	6.92
TATTAAGTATTTTACGTACACACTTATAAATGTACA [CACACA_site3885]	7.01
AATTTATATTTTCGTAGTACGTATTTTATTCTTTTG [XGTACX_site4162]	6.76
TATAAGGTGTCCTATACACACTCCAATAGATATATA [CACACA_site7066]	6.94
CTGAACCCGTTATGGTGTACATAAAATAAGACACAG [XGTACX_site3484]	7.69
ATTACATGCAATATATGTACGTAATATATATATATA [XGTACX_site2300]	9.14
AAAAAAAAAAAGTACACACATACATATAAATATATA [CACACA_site1809]	7.52
AAAGACGCAAAATTGGTGCGCTGCTTTTAGCATTTT	9.78
ACAGAATATTTAATTCAACACACATACATATTTATT [CACACA_site8734]	7.06
ATTTATATCCTTAAACGTACATTGTATTGTATTTTA [XGTACX_site6080]	6.82

Sequence	gcPBM binding intensity (ln)
AATAATCATGATCAAAGTACTTATGAATACCAAAAA [XGTACX_site2572]	7.13
GCATCCCTTTTTATGTGTACATACAAAGGCAATTAC [XGTACX_site6977]	7.4
AAAATATAAATCTAAGCATGCAAAAAAAATTTATAA [TGCATGCA_site1008]	6.72
TATTGTTTTAAAGAGACATGCAATATATATTATTCC [TGCATGCA_site752]	6.82
TTTTTATTCGATGATCAAATAGGTATATACAAAAAA [CACACA_negctrl_site1813]	7.22
AATAATAATAGTAATATGTACATATATATATATATA [TGCATGCA_negctrl_site542]	9.3
TATAAGCAAAAACACACACACATATATATATATATA [CACACA_site3804]	9.78
TTATTTAAAAAAAAGTGTACCCATATATTATAAATC [XGTACX_site8374]	6.97
TAATATTATAGATAAACACACATACACATGTAAATA [CACACA_site7049]	7
AAATGAAATTTGTATACACACAAATATATATATATA [CACACA_site836]	9.55
TTGTATATATATGGAAAAATATATATATATATATAT [GTGCAC_negctrl_site591]	9.75
TTTATTTATAGACACACACACAAAAAAAAAAAAAAA [CACACA_site7280]	7
TTTTTTTTTTTTTTTATAAAAGATAATTTTTTTTTA [CACACA_negctrl_site133]	6.86
CATTTATATTATAAATGTACAAAGTTCGTTTGTTCC [XGTACX_site1305]	6.91
TGTCTTTAAATTTCTCAACACACAGTTATAAAAAAT [CACACA_site8930]	7.33
GGGTCAAGTAAGCTGTTCCTCTTTTTCTTTCTCACT [GTGCAC_negctrl_site473]	7.16
TATAAATTTAAAATGACACACACTAATATTATTTAA [CACACA_site8334]	6.84
ATACGATTGAAACATTGTACATGAATATAAAAAAAT [XGTACX_site5704]	7.04
TAAACGTTAGTATGTGTGCACATTAGTAATTTAAAA	8.8
TTTTTATTATTCTTAAGGATATAACAAAAAAGAAAA [XGTACX_negctrl_site584]	6.94
ATTAATATTATTAGAAGTACTAATAGTAGTATAACT [XGTACX_site1325]	6.89
TTCTAAAAAAATAAAATTATCAAGGTTTTTAAACGT [CACACA_negctrl_site308]	6.91

Sequence	gcPBM binding intensity (ln)
TCAAAGCACACATACACACACATATAGATTTATATA [CACACA_site6272]	7.19
TCTTCATAAAAATAAAGTACATTATATATATAAATA [XGTACX_site3775]	7.15
TAAATAAATATATATTCACACACAAACATATATATA [CACACA_site9332]	7.23
ATGTTGTGTATATATACACACATACATATATATATA [CACACA_site8461]	9.16
GAAATATTTAGACACACACACAAACATATAAATATA [CACACA_site6980]	7.08
GATTATATTATATATTAAATATAAATATGTATTATA [TGCATGCA_negctrl_site66]	6.76
AATGGAAATGTAAAATGTACAGGACGCACACACATA [XGTACX_site7788]	7.25
AATGAGAAGGACTGCACACTAAAATGGAAGGAGAAA [CACACA_site1575]	7.3
AAAAAAAATTAAAATAAATTAAAAAGTAATTATATA [GTGCAC_negctrl_site615]	6.53
GAAAAAATTTTATGGTGTACTTTATTTATTTATATA [XGTACX_site6323]	7.07
TTATTACATGTTACTTAACACACATCTGGTGAAATA [CACACA_site7939]	6.98
GGAAAGACAGTTCACAGTACCCAGTAAACTCTACGG [XGTACX_site2557]	6.01
AAAATATAGTAATATATATATGTATATTATTTGTGG [CACACA_negctrl_site1590]	7.06
ATTAAGTTCAAATGTAGTACGTGTAAAAAAAAAAAA [XGTACX_site1578]	7.28
TACCATGTTCAAATTACACACATATAATGTAATATA [CACACA_site5150]	7.11
ATATATAATATTTTTATTTTTATTTTTTTTTTATGA [TGCATGCA_negctrl_site577]	6.6
TTTATATATGTAAATGCACACATATGTGTATATACT [CACACA_site8493]	7.18
AAAATAAATAAATAAATAAATATATATATATATATA [XGTACX_negctrl_site345]	8.97
TATAGGTATATATTATGTACTTATAATTATATAGAT [XGTACX_site1912]	7.04
TATTCGAAAATTATTCAAATTATCTAACATATTATT [TGCATGCA_negctrl_site70]	6.6
AAAAATAAAATAATATGTACATATATAATATATATA [XGTACX_site4786]	7.74
TAATTTTTTAGACACACACACATATAAATATAAATA [CACACA_site6195]	7.22
